# These are yes or no findings as the source states them, for the method shown. For some assays here: In cells and extracts the contact can be indirect. Some binding calls cover weakened binding; strength is not graded here. For some assays here: Where a sequence is shown, tags or fusion partners need not be part of it.
# Chains of the proteins cited; added tags and fusions are not shown. Lines headed by an entry give the natural chain unless they say otherwise; changes in a name come on top. A line that says so, or that is headed by a name, gives the form on record, which may keep a tag or linker.
# UniProt Q969W3: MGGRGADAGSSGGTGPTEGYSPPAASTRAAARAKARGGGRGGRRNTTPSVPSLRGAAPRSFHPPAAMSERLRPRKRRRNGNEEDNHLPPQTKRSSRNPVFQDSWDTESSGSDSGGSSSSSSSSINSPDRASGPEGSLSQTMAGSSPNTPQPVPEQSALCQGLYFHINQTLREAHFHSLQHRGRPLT
# GST-VCF1 isoform 1 (Q969W3, form named): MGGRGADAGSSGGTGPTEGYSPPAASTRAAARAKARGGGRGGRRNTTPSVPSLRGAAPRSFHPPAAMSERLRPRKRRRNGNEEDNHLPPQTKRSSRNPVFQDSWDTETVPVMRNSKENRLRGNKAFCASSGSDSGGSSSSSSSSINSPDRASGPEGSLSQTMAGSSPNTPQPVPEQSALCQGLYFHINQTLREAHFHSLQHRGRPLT
# UniProt Q9UNN5: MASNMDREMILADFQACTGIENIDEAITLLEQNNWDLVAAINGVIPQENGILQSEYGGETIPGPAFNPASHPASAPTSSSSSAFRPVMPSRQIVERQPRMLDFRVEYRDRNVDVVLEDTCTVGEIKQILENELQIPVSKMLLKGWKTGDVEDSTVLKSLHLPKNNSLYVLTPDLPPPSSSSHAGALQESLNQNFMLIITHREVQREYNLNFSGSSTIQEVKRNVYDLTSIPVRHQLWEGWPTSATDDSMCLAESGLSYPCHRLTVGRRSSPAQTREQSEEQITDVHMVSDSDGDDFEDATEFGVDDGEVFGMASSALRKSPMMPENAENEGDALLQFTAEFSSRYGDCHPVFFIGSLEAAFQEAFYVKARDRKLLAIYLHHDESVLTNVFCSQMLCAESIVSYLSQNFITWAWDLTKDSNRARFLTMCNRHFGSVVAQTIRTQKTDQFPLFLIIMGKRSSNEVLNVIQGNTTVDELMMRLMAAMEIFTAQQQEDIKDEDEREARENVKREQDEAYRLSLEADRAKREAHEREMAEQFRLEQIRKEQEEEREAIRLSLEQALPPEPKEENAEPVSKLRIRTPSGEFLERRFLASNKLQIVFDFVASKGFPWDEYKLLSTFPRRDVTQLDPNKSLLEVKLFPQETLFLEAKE
# Tests used:
# [1] = target: T1, GST-VCF2 isoform 3 (human) (UniProt Q5XKR9); experiment: pull-down; 0.76 nmole GST fusion immobilised on 10 µl glutathione sepharose beads; 0.2 nmole (monomer) p97 or 0.5 nmole His6-FAF1 (or other purified p97 cofactors) in TBS, 2 mM DTT, 1% Triton X-100; SDS-PAGE with Coomassie or 2,2,2-trichloroethanol staining, FAF1 immunoblot; both purified
# T1 sequence: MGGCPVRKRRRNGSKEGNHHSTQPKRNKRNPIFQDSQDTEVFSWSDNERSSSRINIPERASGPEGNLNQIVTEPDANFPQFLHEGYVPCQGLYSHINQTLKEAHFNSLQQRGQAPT
# [2] = target: T2, biotinylated peptide spanning the conserved C-terminal alpha-helix and flanking residues of VCF1 (C180-G203 of isoform 1) (human); experiment: pull-down; 5 nmole N-terminally biotinylated peptide immobilised on 10 µl streptavidin sepharose beads; 0.2 nmole (monomer) p97 variants in TBS, 2 mM DTT, 0.1% Triton X-100; SDS-PAGE, Coomassie staining; both purified
# T2 sequence (peptide, biotin on the N-terminus): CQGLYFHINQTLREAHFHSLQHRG
# [3] = target: FLAG-VCF1 isoform 1 (human) (UniProt Q969W3); experiment: co-IP; anti-FLAG (M2 agarose) immunoprecipitation from lysates of HEK293T cells ectopically expressing FLAG-VCF1/2; lysis buffer 50 mM Tris-HCl pH 7.6, 150 mM NaCl, 2 mM MgCl2, 1% NP40, 10% glycerol, 1 mM DTT; overnight at 4°C; immunoblot of endogenous p97 and cofactors
# [4] = target: FLAG-VCF1 isoform 2 (human) (UniProt Q969W3); experiment: as above
# [5] = target: T3, FLAG-VCF2 isoform 3 (human) (UniProt Q5XKR9); experiment: as above
# T3 sequence: T1 sequence
# [6] = target: GST-VCF1 isoform 1 (human) (UniProt Q969W3); experiment: pull-down; 0.76 nmole GST fusion immobilised on 10 µl glutathione sepharose beads; 0.2 nmole (monomer) p97 or 0.5 nmole His6-FAF1 (or other purified p97 cofactors) in TBS, 2 mM DTT, 1% Triton X-100; SDS-PAGE with Coomassie or 2,2,2-trichloroethanol staining, FAF1 immunoblot; both purified
# [7] = target: GST-VCF1 isoform 2 (human) (UniProt Q969W3); experiment: as above
substance,measurement,setting,value
"p97, wild type, full length, recombinant (from UniProt P55072 1-806)",binding,[1],binds
same,binding,[2],binds
"FAF1, endogenous (from UniProt Q9UNN5 1-650)",binding,[3],binds
same,binding,[4],binds
"p97, endogenous (from UniProt P55072 1-806)",binding,[5],binds
His6-FAF1 (from UniProt Q9UNN5 1-650),binding,[1],no binding (tested: 0.5 nmole His6-FAF1)
same,binding,[6],binds
same,binding,[7],binds
